Only a part is listed here, and it is no random draw. The list includes weakly bound sequences.

The target of this assay is T1, GST-Ap-NF-kB RHD (UniProt A0A913YAJ5).
T1 sequence: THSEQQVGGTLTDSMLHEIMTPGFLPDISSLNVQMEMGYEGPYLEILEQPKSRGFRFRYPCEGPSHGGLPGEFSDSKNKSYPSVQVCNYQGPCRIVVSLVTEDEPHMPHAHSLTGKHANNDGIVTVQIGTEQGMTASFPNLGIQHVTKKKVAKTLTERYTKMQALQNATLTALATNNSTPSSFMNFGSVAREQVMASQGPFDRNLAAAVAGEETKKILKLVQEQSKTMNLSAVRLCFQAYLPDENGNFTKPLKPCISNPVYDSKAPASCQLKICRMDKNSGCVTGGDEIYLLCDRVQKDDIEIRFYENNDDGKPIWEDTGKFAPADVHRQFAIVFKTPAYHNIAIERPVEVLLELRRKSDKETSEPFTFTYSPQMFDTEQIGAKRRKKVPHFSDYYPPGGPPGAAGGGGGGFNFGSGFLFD
The assay can be described thus: protein-binding microarray (PBM). The note with it: PBM: ~300 nM protein, 6 mM HEPES pH 7.8, 80 mM KCl, 0.5 mM EDTA, 0.5 mM EGTA, 6% glycerol, 35 ng/ul poly-dIdC, 1% milk, 1 h, room temperature; Ap Aiptasia and Nv Nematostella (sea anemones) / Co Capsaspora / Aq Amphimedon (sponge) / Dm Drosophila / Hu human; RHD is the Rel homology domain; high values mean tight binding; most listed sequences are background and not binding sites; double strand, one strand shown.
Regarding “CCGATTAACATCACCGAACGCTTTGATGTTAATCGGGTCTTGATTCGCTTGACGCTGCTG”, the binding signal was 0.441 z-score.
Regarding “CCGATTAACATCAGTAGGTTCTTTGATGTTAATCGGGTCTTGATTCGCTTGACGCTGCTG”, the binding signal was 0.63 z-score.
“CCGATTAACATCAACGCCCTGCCTGATGTTAATCGGGTCTTGATTCGCTTGACGCTGCTG” gave a binding signal of 0.127 z-score.
For “CCGATTAACATCATATGAGGACCTGATGTTAATCGGGTCTTGATTCGCTTGACGCTGCTG”, the binding signal was -0.304 z-score.
The sequence “CCGATTAACATCACTGTTCACTCTGATGTTAATCGGGTCTTGATTCGCTTGACGCTGCTG” yielded a binding signal of -0.138 z-score.
As for “CCGATTAACATCATTAGCGTTACTGATGTTAATCGGGTCTTGATTCGCTTGACGCTGCTG”, the binding signal was -0.122 z-score.
“CCGATTAACATCACGAAGCTTGATGATGTTAATCGGGTCTTGATTCGCTTGACGCTGCTG” yielded a binding signal of -0.326 z-score.
In the case of “CCGATTAACATCAGTTCTCCGGGTGATGTTAATCGGGTCTTGATTCGCTTGACGCTGCTG”, the binding signal came out at 0.843 z-score.
“CCGATTAACATCACTAATCTTTTTGATGTTAATCGGGTCTTGATTCGCTTGACGCTGCTG”: the binding signal was -0.562 z-score.
Turning to “CCGATTAACATCAGGATTTTCTATGATGTTAATCGGGTCTTGATTCGCTTGACGCTGCTG”, the binding signal came to 0.527 z-score.
To “CCGATTAACATCAGCGTTGGATGTGATGTTAATCGGGTCTTGATTCGCTTGACGCTGCTG” belongs 0.21 z-score.
Sequence “CCGATTAACATCAGCTCTGGAACTGATGTTAATCGGGTCTTGATTCGCTTGACGCTGCTG” showed a binding signal of -0.398 z-score.
To “CCGATTAACATCATAAACTCTCTTGATGTTAATCGGGTCTTGATTCGCTTGACGCTGCTG” belongs -0.487 z-score; to “CCGATTAACATCAGACGCTATAATGATGTTAATCGGGTCTTGATTCGCTTGACGCTGCTG”, -0.00202 z-score.
